# Measured values as given in PubChem BioAssay (NCI).
# “And” between values parts separate entries of the source, which are not always exact repeats. Equal entries are not always repeated.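 Results reflect a 48-hour exposure of cells in 96-well plates to compound at five concentrations. Here, GI50 denotes the concentration required for 50% inhibition of growth. TGI denotes the concentration required for complete inhibition of growth.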 Peptide text beside a SMILES is read from it.
# Tested on: NCI-H322M lung
# Experiment: NCI anticancer screen, dose series, 48 h
SMILES,TGI,GI50
CCOC1NC(=O)Oc2ccccc21 (stereo not given),> 100 µM,
CC(C)(C)c1cc(C2COC(=O)COCCOCC(=O)OCCOCCO2)cc(C(C)(C)C)c1O (stereo not given),63 µM,
O=C(/C=C/c1ccccc1F)C(c1ccccc1)c1ccccc1,18.2 µM,
COc1ccc(OC)c2c1C[C@@H]1C(C#N)N3[C@H](Cc4c(OC)ccc(OC)c4[C@@H]3C)C(=O)N1[C@H]2C (stereo not given in full),> 100 µM,
CCOC(=O)c1c(NC(=S)NCc2ccccc2)sc2c1CCN(C)C2,> 100 µM,
CCC1=C(C)C2=NC1=CC1=NC(=C(CC)/C1=C/O)C=C1N=C3C(=C1C)C(=O)C(C(=O)OC)C3=C1NC(=C2)C(C)C1CCC(=O)OC (stereo not given),> 100 µM,
CC(C)(C)[C@@H]1NC(=O)CN1C(=O)OCc1ccccc1,> 100 µM,
COc1cc(-c2ccc(-c3ccc(C(=N)N)s3)s2)cc(OC)c1OC,6.51 µM,2.38 µM
CC(=O)OC(C)(C)C1CCC(C)(C(O)COc2ccc(CCNC(=O)c3ccccc3)cc2)O1 (stereo not given),> 100 µM,
N#Cc1nn(-c2ccc(Cl)cc2)c(N)c2c(=N)n3nc(-c4ccccc4)cc3nc12,> 100 µM,
Cn1c(=O)c(Cc2ccc(F)cc2F)cc2cnc(NC3CCOCC3)nc21,> 25 µM,> 25 µM
Cc1c(Cl)cccc1NC(=O)C(=O)C1C(=O)NC(=O)NC1=O,> 100 µM,
CC(=O)OC1CC2(O)C(CCC3(C)C(c4ccc(=O)oc4)CCC32O)C2(C)CCC(O)C=C12 (stereo not given),0.122 µM and 0.106 µM,0.0808 µM
CCCNc1nc(-c2ccc(OC)cc2)nc2ccccc12,29.6 µM,15.3 µM
COC(=O)c1oc2c(C(=O)/C=C/c3ccc(OC)cc3)c(OCCCN3CCCCC3)ccc2c1C,7.32 µM,2.24 µM
O=C(CC1C(=O)Nc2ccccc2S1=O)Nc1cccc(Cl)c1 (stereo not given),97.8 µM,
O=C1NC(=NCCc2ccccc2Cl)S/C1=C\c1ccc2ncccc2c1,> 22 µM,5.06 µM
CCCCCCCCSC1=CC(=O)C(OC)=C(OC)C1=O,94.3 µM,22.7 µM
COc1ccc(NS(=O)C2CCCCC2)cc1 (stereo not given),> 100 µM,
Nc1nc(Cl)nc2c1ncn2C1O[C@H](CO)[C@@H](O)[C@@H]1F (stereo not given in full),> 100 µM,1.2 µM
CCCCCCc1cc(C=O)sc1-c1ccc(-c2sc(-c3ccc(-c4ccc(-c5cc(CCCCCC)c(-c6ccc(-c7sc(C=O)cc7CCCCCC)s6)s5)s4)s3)cc2CCCCCC)s1,> 100 µM,
C[n+]1c2ccccc2c(NC2CCNCC2)c2[nH]c3ccccc3c21,5.01 µM,0.254 µM
CC(=O)c1nc2ccccc2n1CC(=O)c1ccc([N+](=O)[O-])cc1,> 100 µM,

SMILES,TGI,GI50
COc1ccccc1NC(=S)N/N=C(/c1ccccc1)c1ccccn1,20.6 µM,
NC(=O)NC(=O)CI,> 56.6 µM,> 42 µM
Cc1ccc(Cl)cc1Nc1nc(C(F)(F)F)ccc1C(=O)Oc1ccc(Cl)cc1,35.9 µM,10.8 µM
O=C(NC(=S)NS(=O)(=O)c1ccc(N2N=C3c4ccccc4CC3C2c2cccs2)cc1)c1ccccc1 (stereo not given),57.5 µM,14.2 µM
C[C@H](NC(=O)OC1C2C=CC(O)C1CC2)c1ccccc1 (stereo not given in full),> 100 µM,
CC(=O)OCc1ccc(-c2nc(C#N)c(N)o2)o1,> 10 µM,
O=C1c2cccc3cccc(c23)C(=O)N1CCCCOc1ccc(-c2nc3ccc(N4CCOCC4)cc3[nH]2)cc1,,2.2 µM
CC(C)C[C@H](NC(=O)[C@@H](Cc1cccc2ccccc12)NC(=O)N1CCOCC1)B(O)O,43.4 µM,
CC(=O)OCC1OC(n2c(-c3ccccc3)c(N=Nc3ccc(Cl)cc3)c(C)c(C#N)c2=S)C(OC(C)=O)C(OC(C)=O)C1OC(C)=O (stereo not given),> 100 µM,31.3 µM and > 100 µM
NCCOc1ccccn1,> 100 µM,
CNCCNc1nc2ccccc2c2c(=O)c3cccc(OC)c3sc12,3.06 µM,1.53 µM
CC(C)(C)c1cc(C(O)(C(F)(F)F)C(F)(F)F)c2c(c1)C(C(F)(F)F)(C(F)(F)F)OC(c1ccccc1)(C(C)(C)C)N2 (stereo not given),40.2 µM,
C/C=C/C1(NS(=O)(=O)c2ccc(C)cc2)CCC(C(C)(C)C)CC1 (stereo not given),75.9 µM,
CC(C)=NN/C(=N\S(=O)(=O)c1cc(Cl)c(Oc2ccc([N+](=O)[O-])cc2Cl)c(Cl)c1)Nc1ccc(Cl)cc1,> 100 µM,
Fc1ccc(C(=NCc2ccccc2)N2CCOCC2)cc1,> 100 µM,
Cc1ccccc1NC(=O)c1[nH]c(=S)nc(N)c1-c1ccccc1C,> 100 µM,
CC(=O)O[C@H]1CC[C@@]2(C)C(=CC[C@@H]3C2CC[C@]2(C)Nc4oncc4CC32)C1 (stereo not given in full),> 100 µM,
Nc1nc(Cl)cc(NCC2(CO)CC(CCCCc3ccccc3)C2)n1 (stereo not given),> 100 µM,
CC1=C(C(=O)Nc2ccc(F)c(Cl)c2)C(c2cccc(Cl)c2)NC(=O)N1 (stereo not given),35.6 µM,11.7 µM
CC(=O)OCCOCNC(=S)N/N=C(\C)c1ccco1,> 100 µM,
CCCCCC(=O)N[C@H](C(=O)N[C@H](C(=O)N(C)[C@@H](CC(C)C)C(=O)N1CCC[C@H]1C(=O)N1CCC[C@H]1C(=O)O[C@H](C(=O)N1C(=O)C=C(OC)[C@@H]1Cc1ccccc1)C(C)C)C(C)C)C(C)C (HELM PEPTIDE1{[CCCCCC(=O)[*:2]].V.V.[meL].P.P.[COC1=CC(=O)N(C(=O)[C@@H](O[*:1])C(C)C)[C@H]1Cc1ccccc1]}$$$$V2.0),> 100 µM,
COC(=O)C1Cc2c([nH]c3ccccc23)-c2[nH]c3ccccc3c2CC(NC(C)=O)C(=O)NCC(=O)N1 (stereo not given),> 100 µM,
